The source gives no read counts; variants with many changes may rest on few reads.
B1: CPEB3 Ribozyme (parent)
chain: UAACAGGGGGCCACAGCAGAAGCGUUCACGUCGCAGCCCCUGUCAGAUUCUGGUGAAUCUGCGAAUUCUGCUGUAUAUCUC

Variants of: B1
Assay: self-cleavage, relative activity (ratio to wild type); higher = more cleavage; in vitro, sequencing
Method in brief: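 Barcoded CPEB3 ribozyme mutants, produced by rounds of error-prone PCR, self-cleaved while being transcribed with T7 RNA polymerase for 5 hours at 37°C and during a subsequent 15 min DNase I step before EDTA was added. Sequencing of template-switched cDNA on Illumina gave cleaved and total reads, and DNA sequencing assigned barcodes to variants. Each variant's relative activity is its cleaved/total read fraction divided by the unmutated ribozyme's fraction, averaged across three batches. A variant needed a minimum of 5 reads.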

Variant | self-cleavage
UAACAGGGGGCCACAGCAGAAGCGUUCACGACGCAGCCCCUGUAAGAUUCUGGUGAAUCUGCGAAUACUGCUGUGUGUCUC | 0.04
UAACAGGGGGCCACAGCAGAAGCGUUCACGACGCAGCCCCUGUCAGAUUCUGGUGAAUCUGCGAAUUGUGCCGUAUAUCUC | 0.08
UAACAGGGGGCCACAGCAGAAGCGUUCACGACACAGCCCCUGUCAGAUUCAGGUGAAUCUGCGAAUUCUGCUGUAUAUCUC | 0.25
UAACAGGGGGCCACAGCAGAAGCGUUCACGACGCACCCCCUGUCAGAUUCUGGUGCAUCUGCGAAUUCUGCUGUAUAUCUC | 0.12
UAACAGGGGGCCACAGCAGAAGCGUUCACGACGCAGCCCCUGUCAUAUUCUGGUGUAUCUGCGAAUUCUGCUGUAUAUCUC | 0.11
UAACAGGGGGCCACAGCAGAAGCGUUCACGACGCAGCCCCUGUCAUAUUCUGGCGAAACUGCGAAUUCGGCUGUAUAUCUC | 0.15
UAACAGGGGGCCACAGCAGAAGCGUUCACGACGCAGCCCCUGUCAGAUUCUGGUUAAUCUGCGAAUUCAGCUGUAUAUCAC | 0.26
UAACAGGGGGCCACAGCAGAAGCGUUCACGACGCAGCCCCUGUCAGAUUCUGGUGAAUCUGCGAAUUCUACCGUAUCCCUC | 0.09
UAACAGGGGGCCACAGCAGAAGCGUUCACGACGCAGCCCCAGUCAGAUUCUGGUGAAUCUGCGAAUUCUGCUGCAUAUCUC | 0.24
UAACAGGGGGCCACAGCAGAAGCGUUCACGACGCAGCCCCCGUCAGAUCCUGGUGAAUCUGCGAAUUCUGCUGUAUAUCUC | 0.2
UAACAGGGGGCCACAGCAGAAGCGUUCACGACGCAGCCCCCGUCAGAUUCAGGUGAAUCUGCAAAUUCUGCUGCAUAUCUC | 0.56
UAACAGGGGGCCACAGCAGAAGCGUUCACGACGCAGCCCCCGUCAGAUUCUGGUGAAUCAGCGAGUUCAGCUGUAUAUCUC | 0.15
UAACAGGGGGCCACAGCAGAAGCGUUCACGACGCAGCCCCGGUCAGAUUCUGGUGAAUCUGCGAAUUCUGCUGUAUACCUC | 0.21
UAACAGGGGGCCACAGCAGAAGCGUUCACGACGCAGCCCCUGACAGAUUCUGGUGAAUCUGCGAAUUCUGCUGUAUACCUC | 0.57
UAACAGGGGGCCACAGCAGAAGCGUUCACGACGCAGCCCCUGCCCGAUUCUGGCGGAUCUGCGGAUUCUGCUGUAUAUCUC | 0
UAACAGGGGGCCACAGCAGAAGCGUUCACGACGCAGCCCCUGCCUGAUUCCGGUGAAUCUGCGGAUUCAGCUGUAUAUCUC | 0.07
UAACAGGGGGCCACAGCAGAAGCGUUCACGACGCAGCCCCUGCCAGAUUCUGGCGAAUCUGCGAAUUCUGCUGCAUAUCUC | 0.45
UAACAGGGGGCCACAGCAGAAGCGUUCACGACGCAGCCCCUGCCAGAUUCUGGUGAACCUGCGAAUUCUGCUGUAUACCUC | 0.13
UAACAGGGGGCCACAGCAGAAGCGUUCACGACGCAGCCCCUGCCAGAUUCUGGUGAAUCUGCGAACUCUGCUGUAUAUCUC | 0.24
UAACAGGGGGCCACAGCAGAAGCGUUCACGACGCAGCCCCUGUCAGACUCUGGUGAAUCUGCGAAUCCCGCUGUAUAUCUC | 0.14
UAACAGGGGGCCACAGCAGAAGCGUUCACGACGCAGCCCCUGUCAGACUCUGGUGAAUCUGCGAAUUCCGCAGUAUAUCUC | 0.11
UAACAGGGGGCCACAGCAGAAGCGUUCACGACGCAGCCCCUGUCAGAUUCAGCUGAAUCUGCGAAUUCUGCUGUAUAUCUC | 0.82
UAACAGGGGGCCACAGCAGAAGCGUUCACGACGCAGCCCCUGUCAGAUUCAGGUGAAUCCGCGAAUUCUGCUGUAUAUCUC | 0.28

Variant | self-cleavage
UAACAGGGGGCCACAGCAGAAGCGUUCACGACGCAGCCCCUGUCAGAUUCCGGUGAAUCUGCGUAUUCUGCCGUAUAUCUC | 0.19
UAACAGGGGGCCACAGCAGAAGCGUUCACGACGCAGCCCCUGUCAGAUUCCGGUGAAUACGCGAAUUCUGCUGUAUAUCUC | 0.14
UAACAGGGGGCCACAGCAGAAGCGUUCACGACGCAGCCCCUGUCAGAUUCCGGUGAAUCUGCGAAUUCUGCUGUAUACCUC | 0.34
UAACAGGGGGCCACAGCAGAAGCGUUCACGACGCAGCCCCUGUCAGAUUCUGGAGAAUCUGCGAACUCUGCUGUAUAUCUC | 0.21
UAACAGGGGGCCACAGCAGAAGCGUUCACGACGCAGCCCCUGUCAGAUUCUGGCGAAACUGCGAAUUCUGCUGUAUAUCUC | 0.16
UAACAGGGGGCCACAGCAGAAGCGUUCACGACGCAGCCCCUGUCAGAUUCUGGCGAAUCUGCGAAUUCUGCUGCAUAUCUC | 1.09
UAACAGGGGGCCACAGCAGAAGCGUUCACGACGCAGCCCCUGUCAGAUUCUGGUGAAACUGCGCAUUCAGCUGUAUACCUC | 0.1
UAACAGGGGGCCACAGCAGAAGCGUUCACGACGCAGCCCCUGUCAGAUUCUGGUGAAUCCGCGAAUUUUGCUGUAUAUCUC | 0.18
UAACAGGGGGCCACAGCAGAAGCGUUCACGACGCAGCCCCUGUCAGAUUCUGGUGAAUCCGCGAAUUCUUCUGUAUAUCUC | 0.11
UAACAGGGGGCCACAGCAGAAGCGUUCACGACGCAGCCCCUGUCAGAUUCUGGUGAAUCCGCGAAUCCUGCUGUAAGUCUC | 0.17
UAACAGGGGGCCACAGCAGAAGCGUUCACGACGCAGCCCCUGUCAGAUUCUGGUGAAUCUGCGAAUUCUGCAGUGUAUCUC | 0.79
UAACAGGGGGCCACAGCAGAAGCGUUCACGACGCAGCCCCUGUCAGAUUCUGGUGAAUCUGCGAAUUCUGCAGUAUAUCAC | 0.64
UAACAGGGGGCCACAGCAGAAGCGUUCACGCCGCCGCCCCUGUCGGAUUCUGGUGAAUCUGCGAAUUCUGCUGUAUAUCUC | 0.16
UAACAGGGGGCCACAGCAGAAGCGUUCACGCCGCGGCCCCUGUCAGGUUCUGGUGAAUCAGCGAAUUCUGCUGUAUAUCUC | 0.43
UAACAGGGGGCCACAGCAGAAGCGUUCACGCCGCGGCCCCUGUCAGAUUCUGGUGAAUCUGCGUAUUCCGCUGUAUAUCUC | 0.14
UAACAGGGGGCCACAGCAGAAGCGUUCACGCCGCGGCCUCUGUCAGAUUCUGGUGAAUCUGCGGAUUCUGCUGUAUAUCUC | 1.19
UAACAGGGGGCCACAGCAGAAGCGUUCACGCCGCGGCCCCAGUCAGAUUCUGGUGAAUCUGCGAAUCCUGCUGUAUAUCUC | 0.14
UAACAGGGGGCCACAGCAGAAGCGUUCACGCCGCGGCCCCUGCCAGGUUCUGGUGAAUCUGCGAAUUCUGCAGUAUAACUC | 0.2
UAACAGGGGGCCACAGCAGAAGCGUUCACGCCGCGGCCCCUGCCAGAUUCUGGAGAAUCUGCGGAUUGUGCUGUAUACCUC | 0.08
UAACAGGGGGCCACAGCAGAAGCGUUCACGCCGCGGCCCCUGUCAGAUUCUGGGGAAUCUGCGAACUCUGCCGUAUAUCUC | 0.37
UAACAGGGGGCCACAGCAGAAGCGUUCACGCCGCGGCCCCUGUCAGAUUCUGGUGAAUCUGCGAAUUCUGCUGUAUAGCUC | 1.01
UAACAGGGGGCCACAGCAGAAGCGUUCACGCCGCUGCCCCUGUCAGAUUCUGGUGGAUCUGCGAAUUCCGCUGUAUAUCUC | 0.1
UAACAGGGGGCCACAGCAGAAGCGUUCACGCCGCUGCCCCUGUCAGAUUCUGGUGUAUCUGCGAAUUCUGCUGUAUAUCCU | 0.18

Variant | self-cleavage
UAACAGGGGGCCACAGCAGAAGCGUUCACGCCGCUGCCCCUGUCAGAUUCUGGUGAAUCUGCGUAUUCCGCUGUAUAUCUC | 0.11
UAACAGGGGGCCACAGCAGAAGCGUUCACGCCGCUGCCACUGUCAGAUUCUGGUGAAUCUGCGGAUUCUGCUGUAAAUCUC | 0.18
UAACAGGGGGCCACAGCAGAAGCGUUCACGCCGCUGCCCCUGUCAGAUUCUGGUGAAUCUGGGAGUUCUGCUGUAUAUCUC | 0.06
UAACAGGGGGCCACAGCAGAAGCGUUCACGCCGCUGCCCCCGUCUGAUUCUGAGGAAUCUGCGAAUUCUGCUGUAUAUCUC | 0.17
UAACAGGGGGCCACAGCAGAAGCGUUCACGCCGCAGCCCCUGUCCGAUUCUGGUGAGCCUGCGAAUUCUGCUGUAUAUCUC | 0.03
UAACAGGGGGCCACAGCAGAAGCGUUCACGCCGCAGCCCCUGUCGGAUUCUGGUGAGUCUGCGAAUUCUGCUGUACAUCUC | 0.34
UAACAGGGGGCCACAGCAGAAGCGUUCACGCCGCAGCCCCUGUCGGAUUCAGGUGAAUCUGCGAAUUCUGCUGCGUAUCUC | 0.73
UAACAGGGGGCCACAGCAGAAGCGUUCACGCCGCAGCCCCUGUCGGAUUCUGGCGAAUCUGCGAAUACUGCUGUAUAUCUC | 0.12
UAACAGGGGGCCACAGCAGAAGCGUUCACGCCGCAGCCCCUGUCUGGUUCCGGUGUAUCUGCGAGUUCCGCUGUAUAUCUC | 0.03
UAACAGGGGGCCACAGCAGAAGCGUUCACGCCGCAGCCCCUGUCUGAUUCUGGUGAAUCUGCGGACUCUACUGUAUACCUC | 0.09
UAACAGGGGGCCACAGCAGAAGCGUUCACGCCGCAGCCCCUGUCUGAUUCUGGUGAAUCUGCGAAUUCUACUGUAUAUCUC | 0.2
UAACAGGGGGCCACAGCAGAAGCGUUCACGCCGCAGCCCCUGUCAGGUUCUGGUGCAUCUGCGAAUUCUGCUGUAUAUCAC | 0.15
UAACAGGGGGCCACAGCAGAAGCGUUCACGCCGCAGCCCCUGUCAGGUUCUGGUGAGUCUGCGAAUUCUGCUGUAUAUCUC | 0.2
UAACAGGGGGCCACAGCAGAAGCGUUCACGCCGCAGCCCCUGUCAGGUACUGGUGAACCUGCGAAUUCUGCUGUAUAUCUC | 0.57
UAACAGGGGGCCACAGCAGAAGCGUUCACGCCGCAGCCCCUGUCAGUUUCAGGUGAAUCUGCGGGUUCUGUUGUAUAUCUC | 0.21
UAACAGGGGGCCACAGCAGAAGCGUUCACGCCGCAGCCCCUGUCAGUUUCUGGUGAAUCUGCGAAUUCUGCUGUACAUCUC | 0.26
UAACAGGGGGCCACAGCAGAAGCGUUCACGCCGCAGCCCCUGUCAGAUUCUGGUGCGCCUGCGAAUUCUGCUGUAUAUCUC | 0.09
UAACAGGGGGCCACAGCAGAAGCGUUCACGCCGCAGCCCCUGUCAGAUUCUGGUGGAUCAGCGAAUUCUGCCGUAUAUCUC | 0.15
UAACAGGGGGCCACAGCAGAAGCGUUCACGCCGCAGCCCCUGUCAGAUUCUGGUGGAUCUGCGAAUUCUGCUGCAUAUCUC | 0.89
UAACAGGGGGCCACAGCAGAAGCGUUCACGCCGCAGCCCCUGUCAGAUUCUGGUGUAUCUGCGAAUUCUGCUGUACAUCUC | 0.27
UAACAGGGGGCCACAGCAGAAGCGUUCACGCCGCAGCCCCUGUCAGAUUCUGGUGAGUCUGCGAAUUCUGCUGUGAAUCUC | 0.65
UAACAGGGGGCCACAGCAGAAGCGUUCACGCCGCAGCCCCUGUCAGAUUCUGGUGAGUCAGCGAAUUCUGCUGAAUAUCUC | 0.24
